These results are taken from the supplement of paper PMC4604168 (melanoma cell lines).

Some of the results follow. Repeats are few or missing, and single values can be far off.
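Further: cell number obtained by counting DAPI-stained nuclei in high-throughput microscope images with image analysis software, screen run in 1,536-well plates.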

The test system of one assay is MeWo. The experiment in a line: cell count relative to DMSO control; melanoma cells; higher = more viable cells. The settings on record: library dose: low library concentration; 72 h.
`CC(C)C[C@H](NC(=O)[C@H](Cc1ccccc1)NC(=O)c1cnccn1)B(O)O` [Bortezomib] + C/C(O)=C(\C#N)C(=O)Nc1cc(Br)ccc1Br [LFM-A13] (first compound 0.001 µM, partner dose 2 µM): the cell count is 82.7%.

As to `CO[C@H]1C[C@@H]2CC[C@@H](C)[C@@](O)(O2)C(=O)C(=O)N2CCCC[C@H]2C(=O)O[C@H]([C@H](C)C[C@@H]2CC[C@@H](OCCO)[C@H](OC)C2)CC(=O)[C@H](C)/C=C(\C)[C@@H](O)[C@@H](OC)C(=O)[C@H](C)C[C@H](C)/C=C/C=C/C=C/1C` [everolimus] + Cc1cc(SCc2sc(-c3ccc(C(F)(F)F)c(F)c3)nc2C)ccc1OCC(=O)O [GW0742] (first compound 0.02 µM, partner dose 2 µM), the cell count turned out to be 88.8%.

For `Nc1ccn([C@@H]2O[C@H](CO)[C@@H](O)C2(F)F)c(=O)n1` [gemcitabine] + O=C(Oc1ccc([N+](=O)[O-])cc1)N1CCC(C(O)(c2ccc3c(c2)OCO3)c2ccc3c(c2)OCO3)CC1 [JZL184] (first compound 0.0004 µM, partner dose 1 µM), the cell count came out at 94.5%.

Turning to `Cc1nc(Nc2ncc(C(=O)Nc3c(C)cccc3Cl)s2)cc(N2CCN(CCO)CC2)n1` [dasatanib] + Cc1cc(SCc2sc(-c3ccc(C(F)(F)F)c(F)c3)nc2C)ccc1OCC(=O)O [GW0742] (first compound 0.004 µM, partner dose 2 µM), the cell count was 105%.

Molecule `COCC[n+]1c2c(n(Cc3cnccn3)c1C)C(=O)c1ccccc1C2=O` + Cc1cc(SCc2sc(-c3ccc(C(F)(F)F)c(F)c3)nc2C)ccc1OCC(=O)O [GW0742] (first compound 0.0004 µM, partner dose 2 µM) returned a cell count of 76%.

For the molecule `Cc1cc(Nc2cc(N3CCN(C)CC3)nc(Sc3ccc(NC(=O)C4CC4)cc3)n2)n[nH]1` [Tozasertib] + C/C(O)=C(\C#N)C(=O)Nc1cc(Br)ccc1Br [LFM-A13] (first compound 0.006 µM, partner dose 2 µM), the cell count is 78.7%.

The molecule `Cc1cc(Nc2cc(N3CCN(C)CC3)nc(Sc3ccc(NC(=O)C4CC4)cc3)n2)n[nH]1` [Tozasertib] + C[As](C)SC[C@H](NC(=O)CC[C@H](N)C(=O)O)C(=O)NCC(=O)O [Darinaparsin] (first compound 0.006 µM, partner dose 0.4 µM) showed a cell count of 82.6%.

In the case of `COc1ccc(COc2ccc(Cc3cnc(N)nc3N)cc2OC)cc1` + C/C(O)=C(\C#N)C(=O)Nc1cc(Br)ccc1Br [LFM-A13] (first compound 1 µM, partner dose 2 µM), the cell count came to 102%.

Molecule `O=C(O)c1ccc2c(c1)nc(Nc1cccc(Cl)c1)c1ccncc12` + O=C(Oc1ccc([N+](=O)[O-])cc1)N1CCC(C(O)(c2ccc3c(c2)OCO3)c2ccc3c(c2)OCO3)CC1 [JZL184] (first compound 0.4 µM, partner dose 1 µM) displayed a cell count of 98.5%.

On to `COc1ccc(COc2ccc(Cc3cnc(N)nc3N)cc2OC)cc1` + Cc1cc(SCc2sc(-c3ccc(C(F)(F)F)c(F)c3)nc2C)ccc1OCC(=O)O [GW0742] (first compound 1 µM, partner dose 2 µM), for which the cell count was found to be 98%.

`Clc1ccc(Nc2nnc(Cc3ccncc3)c3ccccc23)cc1` [vatalanib] + C[As](C)SC[C@H](NC(=O)CC[C@H](N)C(=O)O)C(=O)NCC(=O)O [Darinaparsin] (first compound 2 µM, partner dose 0.4 µM) had a cell count of 74.4%.

Molecule `CC(C)C[C@H](NC(=O)[C@H](Cc1ccccc1)NC(=O)c1cnccn1)B(O)O` [Bortezomib] + N.N.[Cl][Pt][Cl] [cisplatin] (first compound 0.001 µM, partner dose 1.6 µM) registered a cell count of 89%.

The test system of a further assay is RPMI7951. The description is as above. The note with it: library dose: low library concentration; 72 h.
Regarding `O=C1NC(=O)/C(=C/c2ccc(-c3ccc(F)cc3O)o2)S1` + O=C(Oc1ccc([N+](=O)[O-])cc1)N1CCC(C(O)(c2ccc3c(c2)OCO3)c2ccc3c(c2)OCO3)CC1 [JZL184] (first compound 1 µM, partner dose 1 µM), the cell count was 136%.

Take `O=C(O)c1ccc2c(c1)nc(Nc1cccc(Cl)c1)c1ccncc12` + C[As](C)SC[C@H](NC(=O)CC[C@H](N)C(=O)O)C(=O)NCC(=O)O [Darinaparsin] (first compound 0.4 µM, partner dose 0.4 µM): the cell count was 107%.

For the molecule `CN1CCN(c2ccc3nc(-c4c(N)c5c(F)cccc5[nH]c4=O)[nH]c3c2)CC1` [Dovitinib] + C/C(O)=C(\C#N)C(=O)Nc1cc(Br)ccc1Br [LFM-A13] (first compound 0.1 µM, partner dose 2 µM), the cell count is 103%.

Regarding `O=C(O)c1ccc2c(c1)nc(Nc1cccc(Cl)c1)c1ccncc12` + Cc1cc(SCc2sc(-c3ccc(C(F)(F)F)c(F)c3)nc2C)ccc1OCC(=O)O [GW0742] (first compound 0.4 µM, partner dose 2 µM), the cell count stood at 105%.

`CN1CCN(c2ccc3nc(-c4c(N)c5c(F)cccc5[nH]c4=O)[nH]c3c2)CC1` [Dovitinib] + C[As](C)SC[C@H](NC(=O)CC[C@H](N)C(=O)O)C(=O)NCC(=O)O [Darinaparsin] (first compound 0.1 µM, partner dose 0.4 µM) gave a cell count of 88.5%.

With `Cc1cc(Nc2cc(N3CCN(C)CC3)nc(Sc3ccc(NC(=O)C4CC4)cc3)n2)n[nH]1` [Tozasertib] + N.N.[Cl][Pt][Cl] [cisplatin] (first compound 0.006 µM, partner dose 1.6 µM), the cell count came to 82.9%.

In turn, `CN1CCN(c2ccc3nc(-c4c(N)c5c(F)cccc5[nH]c4=O)[nH]c3c2)CC1` [Dovitinib] + O=C(Oc1ccc([N+](=O)[O-])cc1)N1CCC(C(O)(c2ccc3c(c2)OCO3)c2ccc3c(c2)OCO3)CC1 [JZL184] (first compound 0.1 µM, partner dose 1 µM) displayed a cell count of 92.5%.

For `Clc1ccc(Nc2nnc(Cc3ccncc3)c3ccccc23)cc1` [vatalanib] + C/C(O)=C(\C#N)C(=O)Nc1cc(Br)ccc1Br [LFM-A13] (first compound 2 µM, partner dose 2 µM), the cell count was 86.9%.

In turn, `CC(C)C[C@H](NC(=O)[C@H](Cc1ccccc1)NC(=O)c1cnccn1)B(O)O` [Bortezomib] + C[As](C)SC[C@H](NC(=O)CC[C@H](N)C(=O)O)C(=O)NCC(=O)O [Darinaparsin] (first compound 0.001 µM, partner dose 0.4 µM) returned a cell count of 78.5%.

Regarding `Cc1cc([N+](=O)[O-])ccc1NS(=O)(=O)c1cc(Cl)ccc1Cl` + O=C(Oc1ccc([N+](=O)[O-])cc1)N1CCC(C(O)(c2ccc3c(c2)OCO3)c2ccc3c(c2)OCO3)CC1 [JZL184] (first compound 1 µM, partner dose 1 µM), the cell count is 102%.

`Cc1cc(Nc2cc(N3CCN(C)CC3)nc(Sc3ccc(NC(=O)C4CC4)cc3)n2)n[nH]1` [Tozasertib] + Cn1cc(C2=C(c3cn(C4CCN(Cc5ccccn5)CC4)c4ccccc34)C(=O)NC2=O)c2ccccc21 [Enzastaurin] (first compound 0.006 µM, partner dose 0.8 µM) yielded a cell count of 95.7%.

`Cc1cc(Nc2cc(N3CCN(C)CC3)nc(Sc3ccc(NC(=O)C4CC4)cc3)n2)n[nH]1` [Tozasertib] + O=C(Oc1ccc([N+](=O)[O-])cc1)N1CCC(C(O)(c2ccc3c(c2)OCO3)c2ccc3c(c2)OCO3)CC1 [JZL184] (first compound 0.006 µM, partner dose 1 µM) displayed a cell count of 100%.

For `Oc1cc(-c2nc(-c3ccccc3)[nH]c2-c2ccncc2)ccc1Cl` + C/C(O)=C(\C#N)C(=O)Nc1cc(Br)ccc1Br [LFM-A13] (first compound 0.2 µM, partner dose 2 µM), the cell count amounted to 97.1%.

In turn, `O=C(O)C(=O)Nc1sc2c(c1C(=O)O)CCNC2` + O=C(Oc1ccc([N+](=O)[O-])cc1)N1CCC(C(O)(c2ccc3c(c2)OCO3)c2ccc3c(c2)OCO3)CC1 [JZL184] (first compound 1.66667 µM, partner dose 1 µM) yielded a cell count of 93.9%.

Molecule `C#Cc1cccc(Nc2ncnc3cc(OCCOC)c(OCCOC)cc23)c1` [erlotinib] + C[As](C)SC[C@H](NC(=O)CC[C@H](N)C(=O)O)C(=O)NCC(=O)O [Darinaparsin] (first compound 0.8 µM, partner dose 0.4 µM) displayed a cell count of 100%.

For `Clc1ccc(Nc2nnc(Cc3ccncc3)c3ccccc23)cc1` [vatalanib] + O=C(Oc1ccc([N+](=O)[O-])cc1)N1CCC(C(O)(c2ccc3c(c2)OCO3)c2ccc3c(c2)OCO3)CC1 [JZL184] (first compound 2 µM, partner dose 1 µM), the cell count is 98.6%.

Consider `COc1cc2ncnc(Nc3ccc(Oc4ccccc4)cc3)c2cc1OC` + O=C(Oc1ccc([N+](=O)[O-])cc1)N1CCC(C(O)(c2ccc3c(c2)OCO3)c2ccc3c(c2)OCO3)CC1 [JZL184] (first compound 2 µM, partner dose 1 µM), for which the cell count was determined as 137%.

As for `Nc1ccn([C@@H]2O[C@H](CO)[C@@H](O)C2(F)F)c(=O)n1` [gemcitabine] + C[As](C)SC[C@H](NC(=O)CC[C@H](N)C(=O)O)C(=O)NCC(=O)O [Darinaparsin] (first compound 0.0004 µM, partner dose 0.4 µM), the cell count worked out at 81.6%.

`CC(C)C[C@H](NC(=O)[C@H](Cc1ccccc1)NC(=O)c1cnccn1)B(O)O` [Bortezomib] + O=C(Oc1ccc([N+](=O)[O-])cc1)N1CCC(C(O)(c2ccc3c(c2)OCO3)c2ccc3c(c2)OCO3)CC1 [JZL184] (first compound 0.001 µM, partner dose 1 µM) yielded a cell count of 66.5%.
